# Data: PMC12136788
# Some of the results follow.
# B1: chr12:25693320:25693321:+_ENSMUSG00000036333_ENSMUST00000066652|mus_hu|FALSE|FALSE (ssRNA)
# RNA: GGGAGUUCUACAGUCCGACGAUCGUCAACUCUAAAUAUAGCCAGAAGAGUAAUUCCAGAUAUAAUGCAGCCAAUGAUAAAAAGGAAGAUGACAAAAGAUGGGAGACAACAUGUUUUUUUCCAUUUCUUUUUACCCUGAGUAUCCAACAGAGGAUUGAGCAUCA
# B2: chr1:166823625:166823626:+_ENSG00000143157_ENST00000367875|hu_mus|FALSE|FALSE (ssRNA)
# RNA: GGGAGUUCUACAGUCCGACGAUCAUCAAAGUUUAUUACUGGGAUCAGUUUCUAUCUAGGGAGUGCCAGUCCCAGUGAGCUAUGGUAAUUCUCAGGAAACAGCUAUUCUGCUCAAUAGUUGUACUGGGGCUCUGUUAGGCAUAGCAACAGAGGAUUGAGCAUCA
# B3: chr7:135839730:135839731:+_ENSMUSG00000042105_ENSMUST00000151237|mus_hu|motif|central (ssRNA)
# RNA: GGGAGUUCUACAGUCCGACGAUCAUGGUACUUUAUUUUAAUAAUCACAAGAUUUAACACGUAAAAAAAAAAGAUAGCACGGAUAAAUAACAAAAGUGGAAUGCUUAUCAAAGUAACGACAUAAUGUUCAGUUGAGAAUCAGUCCAACAGAGGAUUGAGCAUCA
# B4: chr18:34659469:34659470:-_ENSMUSG00000036501_ENSMUST00000040506|mus_mus|FALSE|FALSE (ssRNA)
# RNA: GGGAGUUCUACAGUCCGACGAUCGUCAUUUAUGGCUGUUUGAGAUUAUGGCAGAAGAUCAGCCUGUAGUUCCUCAUUGAAGAAACGCAGAACUCGAUCAGUACUUCAGAACUUAAUCGUUGGAACCGCGAAGCCCCGUUCCCCCAACAGAGGAUUGAGCAUCA
# B5: chr5:150025729:150025730:+_ENSMUSG00000041264_ENSMUST00000121416|mus_mus|motif|central (ssRNA)
# RNA: GGGAGUUCUACAGUCCGACGAUCCACGAAGGCUCUCUUCUGAUCUUCUUUCCGAGGCUGAUUCUGUGCUGACCUGGCUGCGGCUGUUUUAGAAGACGCUGUGGUUUCUCGUUUUCUCAAAUUAGAUGCCUGAGAUUUACCAGGCAACAGAGGAUUGAGCAUCA
# B6: 85416237_85420388_240_3pUTR_ENSMUSG00000001783_ENSMUST00000001834|mouse|control|control (ssRNA)
# RNA: GGGAGUUCUACAGUCCGACGAUCAGCCACCAACACCACCACCUCGACAGGCGUUCCUUAAUUCCUCAAACAUUAGUUUUUCCAGAGCAUCAUUCACAUAAAACACUCCUUCAACCUGCAUGUUGGGCACAAAGCCCUUCUUGACAACAGAGGAUUGAGCAUCA
# B7: 29839587_29839707_1158_CDS_ENSG00000197321_ENST00000375400|human|control|control (ssRNA)
# RNA: GGGAGUUCUACAGUCCGACGAUCCUGCAGGGAGGAGCUGUGGGCGUGCUUGGGGGACCGUGGCACUUCAGUGAAGGAGGAGUCUCGCCCAGAGAAAGAGAAGGUCGAGGAACUCUCGGCUGCUGGGGACAGGUCAUGGGCCUGCAACAGAGGAUUGAGCAUCA
# B8: 103538673_103541994_1797_CDS_ENSMUSG00000033004_ENSMUST00000161008|mouse|control|control (ssRNA)
# RNA: GGGAGUUCUACAGUCCGACGAUCUGCCUGGAAUCCAAAUCGACCUGCUUUAUUCUGCACAGCUCUUCUACUGCUUUCCCAGUUAAGAAGGUCAUUGAGGUAACUUUAUUCCCCAGAUCCCGGGAGUUGUCCACAUGAACAGAUCAACAGAGGAUUGAGCAUCA
# B9: chr2:26769575:26769576:-_ENSMUSG00000015790_ENSMUST00000167661|mus_mus|FALSE|FALSE (ssRNA)
# RNA: GGGAGUUCUACAGUCCGACGAUCUGGGCUGUUCUCCGGAACAAAGGGCUUCCUGUUUUCUGUGAGCCUCACUAUGCCAACUAGGUCUACUUCUCCCAGAACCUGGCCUUUCUGUCUGGUCUCAGGAUUCACUUUCUUCCUGGGCAACAGAGGAUUGAGCAUCA
# B10: chr17:21088332:21088333:+_ENSMUSG00000007564_ENSMUST00000007708|mus_hu|FALSE|FALSE (ssRNA)
# RNA: GGGAGUUCUACAGUCCGACGAUCUCACUUCGGGUCCUUUCAACCCCAAGGGCCAAGGCGAUGGUGGACAGCUUCUUGAUGCUGUUGAGGCGAAGCUGAACGUCCUCAUUGCGGAGUUCGUCUAUGAGCACCGCGAUGGGGUACCAACAGAGGAUUGAGCAUCA
# B11: chr1:220276048:220276049:+_ENSG00000067704_ENST00000302637|hu_hu|hu_hu_hu_mus_True|88_98 (ssRNA)
# RNA: GGGAGUUCUACAGUCCGACGAUCGCAAAUUGCCUGGUUGGCUGGAAUCGUCCAAGGCUGGGUGGUCCAAACUAAAACGCUAACAGGGGAUGAGGCAUCUGUAAGAGACUCCAACUUCGGAGGAGGUCUCAGGAGGGGGAAUCUCAACAGAGGAUUGAGCAUCA
# B12: 116406472_116406720_1001_3pUTR_ENSMUSG00000020802_ENSMUST00000082152|mouse|control|control (ssRNA)
# RNA: GGGAGUUCUACAGUCCGACGAUCGCCGCUGAGCAUGGUCAAAGCAUCCGAGACGCUUCACCCUGCCUAGGUUUUCCUGAGUGAUGAUGGAAGGUGGGGGGCUAACGCUGUCCGUGCCGCCGGGGCAGAAGCUCUUGGUAAUCCCAACAGAGGAUUGAGCAUCA
# B13: chr7:97110809:97110810:-_ENSMUSG00000030619_ENSMUST00000107234|mus_mus|motif|central (ssRNA)
# RNA: GGGAGUUCUACAGUCCGACGAUCACAAGACUUGGAAAGUAUCAAAUCGCCUAACCAUCGCACACAAUCAACAUAAUUCCGGUGUAUGUCUCUGGUAGAAAAGUCAGGAAAGUGGAUUUUCUGGGAAAUAAAUGGCCUGUUAGUCAACAGAGGAUUGAGCAUCA
# B14: 104973726_104976136_736_3pUTR_ENSMUSG00000032563_ENSMUST00000142424|mouse|control|control (ssRNA)
# RNA: GGGAGUUCUACAGUCCGACGAUCAUUUUAGUUCCAGGCCAGACUCUGGCAAUAUCCCCAGUUGAGAUAGCGCCAGGUCUCCUGUGGGUCUUUGUUUGACCAUGAGAAGCAGGUUGGCCUUUAAAUCCCCAUCUUUUCAUGACGCAACAGAGGAUUGAGCAUCA
# B15: chr7:141445308:141445309:+_ENSG00000106028_ENST00000265304|hu_hu|hu_hu_hu_mus_False|8_68 (ssRNA)
# RNA: GGGAGUUCUACAGUCCGACGAUCUAUGAUUGUUGUUGCUUGCCGCCUCACAUUGUUUUUAUCCAUGUAUUCACCAUAGUCCACUUUCCCUUCCACAAAUAUACGAGCCCCCUUUUUCACAUACUGAUAUGCCACGUCUCUGAGCAACAGAGGAUUGAGCAUCA
# B16: chr1:39494447:39494448:+_ENSG00000168653_ENST00000372967|hu_mus|hu_hu_hu_mus_False|8_108 (ssRNA)
# RNA: GGGAGUUCUACAGUCCGACGAUCGCAUCGACCAGCCUUCUUAUAGGGCUGUUCUGCGCUUAGGAACAUAAAGUGCCGGUCCAGGCUGAUGCCCAGCUUUUUCUGUAUGUCAAGGAAAGGCAUGGCUGAUGCUCGUGCUUGUCACAACAGAGGAUUGAGCAUCA
# B17: chr1:58468927:58468928:-_ENSMUSG00000026034_ENSMUST00000148330|mus_mus|mus_mus_mus_hu_False|48_88 (ssRNA)
# RNA: GGGAGUUCUACAGUCCGACGAUCAAUUACUGAAAAAGAUGUUCAUUUAUUUGGUUUUGUACUUAAUGAACCAAAUUACCCAAACAACAUAAAAUGUGCAAUAUAAAAAUGUUAAGAAUUUACAAAGCUGUACAAAAUAACUUACAACAGAGGAUUGAGCAUCA
# B18: chr19:16212804:16212805:+_ENSG00000167460_ENST00000300933|hu_mus|hu_hu_hu_mus_False|38_88 (ssRNA)
# RNA: GGGAGUUCUACAGUCCGACGAUCAACAAUUCUGGAGUGAAGGAAAGCAUCAAGGAUGAACAGCAUUAAAGCUCAGUCAGAAGGCACAUGGGCAACAAUGACUAUUUCAGCAUUCUCGCUUGGAAUGCUUAAAGACAAUCUGUUCAACAGAGGAUUGAGCAUCA
# B19: chr16:17389515:17389516:-_ENSMUSG00000041720_ENSMUST00000036161|mus_hu|FALSE|FALSE (ssRNA)
# RNA: GGGAGUUCUACAGUCCGACGAUCUCAGAUUCAAUCAGAAAAAUGCCCAAUGCAAUCACUGCAUCUCUCCGUCUUUCAUCUAACUGGAAGAUCCCAUGGAAAUCCACUGGACACAUGCAAAGAAGCUUUUGGACCUUCUCCAAGCAACAGAGGAUUGAGCAUCA
# B20: chr1:45478652:45478653:+_ENSG00000126088_ENST00000246337|hu_hu|FALSE|FALSE (ssRNA)
# RNA: GGGAGUUCUACAGUCCGACGAUCGCAGGCCUCAGGAGAGCGACACGUGCUGAAAAAGUCCUGGGCAGCCCGGGUUUCCCUAAACUCUGGUAAGUAACGGCCUGCCUGGCGCAUGCACCAAACGGGAGUGUAGUCUGUUUCCUCCAACAGAGGAUUGAGCAUCA
# B21: chr10:112362727:112362728:-_ENSMUSG00000074748_ENSMUST00000099276|mus_hu|motif|central (ssRNA)
# RNA: GGGAGUUCUACAGUCCGACGAUCGAUCCCAGCAUGCGAUAAUGCCAGGCAGUGGUCCCUGGGCAUGCGAUGGUGGGAACGGAUGUAUGGAAGAAAAAGCCACAAACCACAGAAAUUUUAAAGAACCCCCCCCUUCCCCCAUAACAACAGAGGAUUGAGCAUCA
# B22: chr14:78183846:78183847:+_ENSG00000119705_ENST00000557342|hu_hu|hu_hu_hu_mus_False|88_88 (ssRNA)
# RNA: GGGAGUUCUACAGUCCGACGAUCUCUCAGAAAUCUUUCUUCAUCAGCAUCAUCAGAUCCGUGCAAAGCCUUUGCUCUUUGAGCUUGAACGUGGAUCUAUGGGAGGGAAAGCACUGUCAGAAAAGGUAAUUUUUUUUUUAAAGACAACAGAGGAUUGAGCAUCA
# Target: T1, UNK ZnF1-3 (human, UniProt Q9C0B0 31-174)
# T1 sequence: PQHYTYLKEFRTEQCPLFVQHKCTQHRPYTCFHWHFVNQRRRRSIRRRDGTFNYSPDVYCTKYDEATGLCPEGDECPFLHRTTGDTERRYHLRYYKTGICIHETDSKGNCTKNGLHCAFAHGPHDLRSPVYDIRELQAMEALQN
# Experiment: nsRBNS (natural sequence RNA bind-n-seq); RBNS binding buffer (assumed for nsRBNS): 25 mM Tris pH 7.5, 150 mM KCl, 3 mM MgCl2, 0.01% Triton X-100, 500 ug/ml BSA, 20 U/ml SUPERase-In, 4 C; UNK is unkempt and MSI1 is Musashi-1; names of the RNAs are library labels; protein concentration not given here; high values mean tight binding
row,Binder,binding signal [enrichment R]
1,B1,1.58
2,B2,0.597
3,B3,1.32
4,B4,0.809
5,B5,0.666
6,B6,1.57
7,B7,3.03
8,B8,0.821
9,B9,0.52
10,B10,0.472
11,B11,1.1
12,B12,0.889
13,B13,1.64
14,B14,0.494
15,B15,0.67
16,B16,0.563
17,B17,1.68
18,B18,1.25
19,B19,0.888
20,B20,1.04
21,B21,2.14
22,B22,2.04
